Experiment [1] concerns the target T1, recombinant human Ang-1 (human, UniProt Q15389 20-498, limits assumed).
T1 construct: also called Angiopoietin 1
T1 sequence (looked up): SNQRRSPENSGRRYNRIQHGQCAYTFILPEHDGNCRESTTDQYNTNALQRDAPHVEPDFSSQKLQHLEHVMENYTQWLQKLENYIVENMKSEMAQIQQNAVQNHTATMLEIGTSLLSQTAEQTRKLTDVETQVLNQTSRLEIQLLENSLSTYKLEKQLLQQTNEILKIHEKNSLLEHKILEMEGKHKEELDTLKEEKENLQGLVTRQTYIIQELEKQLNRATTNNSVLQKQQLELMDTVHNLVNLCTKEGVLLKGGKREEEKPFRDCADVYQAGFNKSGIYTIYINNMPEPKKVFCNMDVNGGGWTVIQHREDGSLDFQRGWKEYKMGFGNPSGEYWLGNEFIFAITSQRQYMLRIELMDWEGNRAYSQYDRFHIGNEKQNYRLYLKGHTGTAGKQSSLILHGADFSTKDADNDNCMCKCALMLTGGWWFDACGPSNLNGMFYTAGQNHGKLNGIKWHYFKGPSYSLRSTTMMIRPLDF
Kind of experiment: ELISA on plate-coated recombinant human Ang-1; anti-human IgG1-Fc-HRP, OD450 (curve reaches only OD450 about 0.2 at about 10 µg/mL). On the procedure: After non-specific blocking using 1% BSA at 25° C. for 1 hour, a series of dilutions of test antibodies (“Abs”) were added into the coated wells and incubated at 25° C. for 1 hour. The bound Abs were detected using a secondary Ab (goat anti-human IgG1-Fc) conjugated with HRP followed by OD₄₅₀ reading.
The same ELISA procedure was performed with recombinant human Ang-1.

The target in experiment [2] is T2, recombinant human VEGF-A165 (human, UniProt P15692-4 27-191).
T2 sequence (looked up): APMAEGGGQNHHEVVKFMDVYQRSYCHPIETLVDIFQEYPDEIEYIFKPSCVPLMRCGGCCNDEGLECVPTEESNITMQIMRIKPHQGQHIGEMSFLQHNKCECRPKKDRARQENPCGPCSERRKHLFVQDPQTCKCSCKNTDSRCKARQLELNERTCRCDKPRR
Kind of experiment: ELISA, cross species binding. On the technique in general: ELISA stands for enzyme-linked immunosorbent assay.

A further experiment addresses T3, recombinant human IL-6R (human, UniProt P08887 20-365, limits assumed).
T3 construct: Recombinant protein used in ELISA and as SPR analyte; also called hIL-6R
T3 sequence (looked up): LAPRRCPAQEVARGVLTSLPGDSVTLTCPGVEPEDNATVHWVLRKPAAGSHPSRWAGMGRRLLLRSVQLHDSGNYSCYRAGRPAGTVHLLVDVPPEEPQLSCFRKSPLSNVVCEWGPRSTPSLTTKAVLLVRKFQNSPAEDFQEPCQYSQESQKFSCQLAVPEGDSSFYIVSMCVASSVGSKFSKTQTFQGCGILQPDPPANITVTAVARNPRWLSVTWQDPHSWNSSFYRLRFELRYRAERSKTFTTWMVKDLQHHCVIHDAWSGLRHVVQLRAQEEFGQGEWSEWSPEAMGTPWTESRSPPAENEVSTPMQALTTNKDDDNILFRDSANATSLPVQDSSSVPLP
The experiment is described as follows: ELISA, cross species binding.

The target of the next experiment is Rhesus monkey VEGF-A165 (Rhesus monkey). The experiment is described as follows: ELISA, cross species binding.
The next experiment has as its target Rhesus monkey Ang-2 (Rhesus monkey). The experiment is described as follows: ELISA, cross species binding.
In a further experiment the target is T4, Rhesus monkey IL-6R (Rhesus monkey, UniProt A0A5F8AUE5 20-365).
T4 sequence: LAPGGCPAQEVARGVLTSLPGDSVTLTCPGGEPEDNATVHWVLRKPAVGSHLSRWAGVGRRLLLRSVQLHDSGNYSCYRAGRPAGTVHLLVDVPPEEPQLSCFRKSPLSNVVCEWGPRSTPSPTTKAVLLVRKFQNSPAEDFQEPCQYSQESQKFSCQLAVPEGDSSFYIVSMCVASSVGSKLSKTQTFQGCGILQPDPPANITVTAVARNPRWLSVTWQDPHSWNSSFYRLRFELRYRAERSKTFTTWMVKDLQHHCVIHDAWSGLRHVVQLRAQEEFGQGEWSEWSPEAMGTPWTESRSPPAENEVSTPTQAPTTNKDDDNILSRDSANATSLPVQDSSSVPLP
Kind of experiment: ELISA, cross species binding.

Another experiment has as its target rabbit Ang-2 (rabbit). The experiment is described as follows: ELISA, cross species binding.
In another experiment the target is T5, rat VEGF-A165 (rat, UniProt P16612-2 27-190).
T5 sequence (looked up): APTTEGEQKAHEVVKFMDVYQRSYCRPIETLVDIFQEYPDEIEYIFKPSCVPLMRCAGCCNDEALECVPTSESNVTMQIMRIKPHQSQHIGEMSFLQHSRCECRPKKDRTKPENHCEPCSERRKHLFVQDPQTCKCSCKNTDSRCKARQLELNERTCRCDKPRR
Kind of experiment: ELISA, cross species binding.

Another experiment deals with T6, rat Ang-2 (rat, UniProt O35462 19-496, limits assumed).
T6 sequence (looked up): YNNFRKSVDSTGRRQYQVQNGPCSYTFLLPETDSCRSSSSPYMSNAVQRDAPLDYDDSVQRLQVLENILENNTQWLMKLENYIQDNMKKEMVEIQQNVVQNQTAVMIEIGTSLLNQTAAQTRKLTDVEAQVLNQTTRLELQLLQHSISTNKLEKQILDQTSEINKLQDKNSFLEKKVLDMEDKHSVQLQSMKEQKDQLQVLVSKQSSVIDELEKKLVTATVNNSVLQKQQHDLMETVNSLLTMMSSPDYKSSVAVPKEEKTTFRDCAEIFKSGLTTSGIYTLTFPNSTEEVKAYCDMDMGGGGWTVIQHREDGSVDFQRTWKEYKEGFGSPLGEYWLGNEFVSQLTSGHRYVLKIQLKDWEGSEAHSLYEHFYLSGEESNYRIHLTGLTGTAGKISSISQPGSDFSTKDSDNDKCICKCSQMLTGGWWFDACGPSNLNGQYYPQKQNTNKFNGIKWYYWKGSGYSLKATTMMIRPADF
Kind of experiment: ELISA, cross species binding.

For experiment [3], the target named is T1, recombinant human Ang-1. The experiment is described as follows: SPR Biacore, 25 C; test antibody captured by anti-human IgG (Fc) on CM5 chip, target protein as analyte. On the procedure:
SPR Biacore assay was performed at 25° C. with HBS-EP+ as a running buffer. The assay was performed by immobilization of the anti-human IgG (Fc) antibody onto the CM5 sensor chip surface and determined the level of ligand immobilization. […] Test antibodies were injected over the surface of Series S Sensor Chip CM5 as Capture. The analytes (target proteins) were diluted with running buffer into different concentrations and injected over the sensor surface as the association phase for affinity and kinetics measurements. The 1:1 binding model was used to measure the binding affinity and/or kinetics.
In general terms: SPR reads the build-up and loss of mass on a sensor chip optically.

Here are results for 2 molecules from patent US20260265359A1 (Hoffmann-La Roche, published 2026).

B1: EB-105BI-7CA (other)
heavy: QVQLQESGPGLVRPSQTLSLTCTVSGYSITSDHAWSWVRQPPGRGLEWIGYISYSGITTYNPSLKSRVTMLRDTSKNQFSLRLSSVTAADTAVYYCARSLARTTAMDYWGQGSLVTVSSASTKGPSVFPLAPSSKSTSGGTAALGCLVKDYFPEPVTVSWNSGALTSGVHTFPAVLQSSGLYSLSSVVTVPSSSLGTQTYICNVNHKPSNTKVDKKV[human IgG1 Fc skipped]GGSGGGGSGGGGSAQTNFMPMDDLEQRLYEQFILQQGLE
light: SDTGRPFVEMYSEIPEIIHMTEGRELVIPCRVTSPNITVTLKKFPLDTLIPDGKRIIWDSRKGFIISNATYKEIGLLTCEATVNGHLYKTNYLTHRQTNTIIDVVLSPSHGIELSVGEKLVLNCTARTELNVGIDFNWEYPSSKHQHKKLVNRDLKTQSGSEMKKFLSTLTIDGVTRSDQGLYTCAASSGLMTKKNSTFVRVHEKDIQMTQSPSSLSASVGDRVTITCRASQDISSYLNWYQQKPGKAPKLLIYYTSRLHSGVPSRFSGSGSGTDFTFTISSLQPEDIATYYCQQGNTLPYTFGQGTKVEIKRTVAAPSVFIFPPSDEQLKSGTASVVCLLNNFYPREAKVQWKVDNALQSGNSQESVTEQDSKDSTYSLSSTLTLSKADYEKHKVYACEVTHQGLSSPVTKSFNRGEC
notes: VEGFR-1-D2-VEGFR-2-D3 at the N-terminus of the tocilizumab light chain; Made in CHO cells; also called B21138001
For orientation: EC50 means the concentration needed to bring the measured effect to its halfway point. Regarding B1, in the experiment with recombinant human Ang-1 [1], the concentration giving a half-maximal response (EC50) is 6.35 µM.

B2: EB-105BI-7CB (other)
heavy: QVQLQESGPGLVRPSQTLSLTCTVSGYSITSDHAWSWVRQPPGRGLEWIGYISYSGITTYNPSLKSRVTMLRDTSKNQFSLRLSSVTAADTAVYYCARSLARTTAMDYWGQGSLVTVSSASTKGPSVFPLAPSSKSTSGGTAALGCLVKDYFPEPVTVSWNSGALTSGVHTFPAVLQSSGLYSLSSVVTVPSSSLGTQTYICNVNHKPSNTKVDKKV[human IgG1 Fc skipped]GGSGGGGSAQTNFMPMDDLEQRLYEQFILQQGLE
light: B1 light
notes: Trispecific antibody fusion protein, first embodiment; lead molecule; also called B21138002
Take B2: the “binding affinity measured by ELISA” value in experiment [2] came to 0.0621 nM; with recombinant human IL-6R, 0.0359 nM; with Rhesus monkey VEGF-A165, 0.0621 nM; with Rhesus monkey Ang-2, 0.0729 nM; with Rhesus monkey IL-6R, 0.0498 nM; with rabbit Ang-2, 0.173 nM. Besides, the results for the “binding affinity measured by ELISA” value with rat VEGF-A165 and with rat Ang-2 were 0.0207 nM and 0.508 nM, respectively. The binding result with recombinant human Ang-1 [3] is “no binding”.
